# Laboratory results reported in PubChem BioAssay AID602293 (National Center for Advancing Translational Sciences (NCATS), 2012).
# Hit rate of the full screen: of about 1,300 compounds, about 30 (2%) were called active. The inconclusive results got no clear call from the source; some entries with a clear call stand among them for comparison. Calls follow the shape of the dose curve; as a rule, active = well fitted inhibition curve with a large enough effect; inconclusive = small, poorly fitted or top-dose-only effect; inactive = flat fitted curve, though single readings scatter. Potencies beside an inconclusive call are fits to weak or partial responses and may not hold up.
# Test: qHTS for antagonists of the Thyroid Stimulation Hormone Receptor: Hit Validation in HTRF Activity in a Luteinizing Hormone Receptor Cell Line
# Conditions: LHR-expressing cell line, cAMP HTRF, antagonist mode
# How it was run: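 HEK 293 cells stably expressing LH receptor, in DMEM with 10% FCS and 100 uM RO 20-1724, incubated with compound 30 min at room temperature. cAMP measured by competitive HTRF (anti-cAMP cryptate vs cAMP-d2), excitation 330 nm, emissions 615 and 660 nm.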
# Potency is read from the fitted curve at half-maximal effect; tags tell the direction and shape of the fitted curve.
row,SMILES,Potency
1,COc1ccc(-c2cc(-c3nc4ccccn4c3NCc3ccccc3)ccc2OC)cc1,active: 9.53 µM
2,COc1ccccc1NC(=O)c1nc(S(=O)(=O)Cc2ccccc2)ncc1Cl,"inconclusive: 151 µM [inhibitor, partial curve, poor fit]"
3,COc1cc(C(C)=O)ccc1OCC(=O)Nc1ccc(C)c(S(=O)(=O)N2CCCCCC2)c1,"inconclusive: 100 µM [inhibitor, partial curve, poor fit]"
4,O=C(Nc1nc2ccc(F)cc2s1)C1CCN(S(=O)(=O)c2cc([N+](=O)[O-])ccc2Cl)CC1,"inconclusive: 953 µM [inhibitor, partial curve, poor fit]"
5,COc1cc(C(=O)Nc2nc(-c3cccs3)cs2)cc(OC)c1OC,"inconclusive: 301 µM [inhibitor, partial curve, poor fit]"
6,Cc1ccc(NC(=O)c2nc(S(=O)(=O)Cc3ccccc3C)ncc2Cl)cc1C,inactive
7,Cc1ccc(NC(=O)c2cnc(N3CCN(c4ccccn4)CC3)c3ccccc23)c(Br)c1,"inconclusive: 67.5 µM [inhibitor, partial curve]"
8,COc1ccc(C(=O)NC2CCCc3c2cnn3-c2cccc(C)c2C)c(OC)n1 (centres undefined),"inconclusive: 239 µM [inhibitor, partial curve, poor fit]"
9,O=C(Nc1ccc(Cl)c(Cl)c1)Nc1ccccc1O,inactive
10,COc1ccc(-c2sc3ccc(N4CCOCC4)cc3c2C#CCO)cc1,"inconclusive: 75.7 µM [inhibitor, partial curve]"
11,CCc1noc(C)c1C(=O)OCC(=O)Nc1nc(-c2ccc(F)c(F)c2)cs1,"inconclusive: 169 µM [inhibitor, partial curve, poor fit]"
12,COc1ccc(NC(=O)/C(Cl)=C(/Cl)S(=O)(=O)Cc2ccccc2)cn1,"inconclusive: 75.7 µM [inhibitor, partial curve]"
13,CCOc1ccc2nc(NC(=O)c3ccc(OCC4CCCO4)cc3)sc2c1 (centres undefined),"inconclusive: 426 µM [inhibitor, partial curve, poor fit]"
14,O=C(COC(=O)c1ccccc1NS(=O)(=O)c1cccs1)NCC12CC3CC(CC(C3)C1)C2,inactive
15,CN(C)c1ccc(/C=C/c2cc[n+](C)cc2)cc1,"inconclusive: 379 µM [inhibitor, partial curve, poor fit]"
16,CN1/C(=C\C(=O)c2oc3ccccc3c2N)C(C)(C)c2ccccc21,"inconclusive: 269 µM [inhibitor, partial curve, poor fit]"
17,CC1CC1C(=O)N1CCN(S(=O)(=O)c2cc(C(F)(F)F)cc(C(F)(F)F)c2)CC1 (centres undefined),inactive

row,SMILES,Potency
1,CCn1c(Cl)c(C=O)s/c1=N\S(=O)(=O)c1ccccc1,active: 37.9 µM
2,O=C(O)c1ccc(Cl)cc1Nc1nc2cc(Cl)ccc2o1,inactive
3,COc1ccc(CCNC2=C(Cl)C(=O)N(CCc3ccc(OC)c(OC)c3)C2=O)cc1OC,active: 37.9 µM
4,CN(c1cccc(NC(=O)c2ccc(Cl)c(S(=O)(=O)Nc3ccccc3)c2)c1)S(C)(=O)=O,inactive
5,CCn1c(=O)c([N+](=O)[O-])c(Cl)c2ccccc21,"inconclusive: 151 µM [inhibitor, partial curve, poor fit]"
6,COc1ccc(CCNc2ncnc3sc(C)cc23)cc1OC,"inconclusive: 1510 µM [inhibitor, partial curve, poor fit]"
7,CC1CCc2nc(NC(=O)CSc3nc4ccccc4o3)sc2C1 (centres undefined),inactive
8,COC(=O)c1ccc(NC(=O)c2nc(S(=O)(=O)Cc3cccc(C)c3)ncc2Cl)cc1,inactive
9,Cc1ccccc1C(=O)N1CCN(c2ccc(NC(=S)NC(=O)c3ccco3)cc2)CC1,"inconclusive: 301 µM [inhibitor, partial curve, poor fit]"
10,COc1ccc2[nH]c3c(NCCC4=CCCCC4)ncnc3c2c1,"inconclusive: 190 µM [inhibitor, partial curve, poor fit]"
11,CN1/C(=C/C(=O)c2nc(S(C)(=O)=O)ncc2Cl)C(C)(C)c2ccccc21,"inconclusive: 75.7 µM [inhibitor, partial curve, poor fit]"
12,CCc1ccc(-c2cc(C)no2)cc1S(=O)(=O)N1CCN(c2ccccn2)CC1,inactive
13,N#CC(C#N)=C1C=CC=CN1/C(=C\c1ccco1)C(=O)c1ccc(Cl)cc1,"inconclusive: 67.5 µM [inhibitor, partial curve]"
14,CCCCNc1c(-c2cccc(-c3ccc(OC)cc3)c2)nc2ccc(C)cn12,inactive
15,N#Cc1ccc(NC(=O)Nc2ccc(Cl)cc2)cc1,"inconclusive: 269 µM [inhibitor, partial curve, poor fit]"
16,Cc1cccc(NC(=O)c2ccc(Cl)c(S(=O)(=O)N3CCc4ccccc43)c2)n1,inactive
17,COc1cccc(C(=O)Nc2ccc(-c3nc4ccccc4o3)c(O)c2)c1,"inconclusive: 301 µM [inhibitor, partial curve, poor fit]"
